From the supplement of paper PMC10326071
This is one part of the list. Single values are uncertain, as repeats are few or missing.

Legend:
[1] = system: SARS-CoV-2 nsp3 SARS-unique domain core (SUD-core, nsp3 residues 413-676); experiment: dissociation rate constant koff (BLI); higher = faster dissociation; conditions: 100 µM; 25 °C
[2] = system: SARS-CoV-2 nsp3 SARS-unique domain core (SUD-core, nsp3 residues 413-676); experiment: apparent dissociation constant Kd (single-concentration BLI fit); higher = weaker binding; conditions: 100 µM; 25 °C

| Compound | dissociation rate constant koff [1] [s⁻¹] | apparent dissociation constant Kd [2] [µM] |
| --- | --- | --- |
| CCN1CCC(n2cc(CNc3cc(Cl)c4ncc(C#N)c(Nc5ccc(F)c(Cl)c5)c4c3)nn2)CC1 | 0.0101 | 53.7 |
| Cn1c(=N)ccn([C@@H]2O[C@H](CO)[C@@H](O)[C@H]2O)c1=O | 0.0167 | 111 |
| Cc1cccc(C)c1-n1c(=O)c2cnc(Nc3ccc(N4CCN(C)CC4)cc3)nc2n2c3ccccc3nc12 | 0.0305 | 74.3 |
| C=CC(=O)Nc1cccc(-n2c(=O)cc(C)c3cnc(Nc4ccc(OCCN(C)C)cc4OC)nc32)c1 | 0.0208 | 16.9 |
| CN(C)C/C=C/C(=O)Nc1cccc(C(=O)Nc2cccc(Nc3ncc(Cl)c(-c4c[nH]c5ccccc45)n3)c2)c1 | 0.0231 | 67.7 |
| C[C@H](NC(=O)[C@H]1NCC[C@@H]1O)c1ccc(-c2noc(CCC3CCCC3)n2)cc1 | 0.532 | 260 |
| Cc1cnc(Nc2ccc(F)cc2Cl)nc1-c1c[nH]c(C(=O)N[C@H](CO)c2cccc(Cl)c2)c1 | 0.0442 | 14800 |
| C#Cc1c[nH]c(=O)[nH]c1=O | 0.00985 | 44.7 |
| c1cc(Nc2cc(C3CC3)[nH]n2)nc(Nc2ccc3nc[nH]c3c2)n1 | 0.113 | 76.1 |
| Fc1ccc2[nH]ccc2c1-c1nc(N2CCOCC2)c2sc(CN3CCN(CC4CC4)CC3)cc2n1 | 0.411 | 1340 |
| Cc1[nH]c(/C=C2\C(=O)Nc3ccc(F)cc32)c(C)c1C(=O)NCCN1CCCC1 | 1.33 | 236 |
| COc1cccc([C@@H](C)NC(=O)c2ccc(-c3ccncc3)cc2)c1 | 0.76 | 1480 |
| C=CC(=O)N[C@H]1C=C(C)c2c(-c3cnc4ccccc4c3)c3c(N)ncnc3n2C1 | 1.35 | 840 |
| CCOc1nc(Nc2ccc(C(=O)N3CCOCC3)cc2OC)nc2[nH]ccc12 | 0.724 | 765 |
